# Where “and” joins values, the source holds several entries; their conditions need not be identical. Equal values may be shown once. In all, about 420,000 compounds went through this assay and about 64,000 (15%) were called active. This list was built around the results that the source calls inconclusive (neither active nor inactive); the mix of calls is not that of the screen. The call rests on the fitted dose curve; in most records, active means well fitted inhibition curve with a large enough effect; inconclusive means small, poorly fitted or top-dose-only effect; inactive means flat fitted curve, though single readings scatter. No potency is given beside an inconclusive call; the fits are too rough.
# Experiment: qHTS for Inhibitors of human tyrosyl-DNA phosphodiesterase 1 (TDP1): qHTS in cells in absence of CPT; further: nearly all actives have a fitted effect of over 55% in size
# Details: DT40 Tdp1-/- hTDP1 cells, no CPT, ATP luminescence, 48 h; activity change, negative = growth inhibition: at 46.2 µM (top of the series) unless noted
# Summary of the method: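 Growth of hTDP1-complemented DT40 Tdp1-knockout cells is measured by ATP luminescence after at least 48 hr compound exposure at 37 °C, with DMSO substituting for the 20 nM CPT used in the parallel screen.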
# On the % scale 0 is the no-effect control and ±100 the full control effect; potency means the concentration at half of the fitted maximal effect; tags describe the fitted curve by direction and shape.
SMILES,Potency,"activity change, negative = growth inhibition"
CCCCNC(=O)CNC(=S)N(Cc1ccc(C)cc1)Cc1ccco1,"inconclusive [inhibitor, single point]",
CSc1cccc(NS(=O)(=O)c2ccc3[nH]cc(C(=O)N4CCCC4)c(=O)c3c2)c1,,inactive: -1.61%
COc1ccc(-c2cc(C(F)(F)F)nc(SCC(=O)NCc3cccs3)n2)cc1,"inconclusive [inhibitor, single point]",
COc1ccc(-n2c(COc3ccc(C)cc3)n[nH]c2=S)cc1,"inconclusive [inhibitor, single point]",
CC1(c2cccc(Br)c2)NC(=O)N(CC(=O)NCCC2=CCCCC2)C1=O (stereo not given),"inconclusive [inhibitor, single point]",
O=C1C(C2=NC(c3ccccn3)C3C(=O)N(c4ccc(OC(F)(F)F)cc4)C(=O)C23)=C(O)c2ccccc21 (stereo not given),"inconclusive [inhibitor, single point]",
CCOc1ccc(N(CC(=O)NCCc2ccccc2)C(=O)c2csnn2)cc1,,inactive: 1.48%
CCOC(=O)c1c(CN(C)C)oc2cc(CN(C)C)c(O)c(CSc3ccccc3)c12,,inactive: -23.9%
CC(=O)c1ccc(-c2cnc3c(NC=O)cc(-c4ccc(C(=O)N5CCOCC5)cc4)cn23)cc1,active: 20.6 µM,
O=C(CCSc1ccc(Cl)cc1)N1CCN(c2ncccn2)CC1,"inconclusive [inhibitor, single point]",
S=C(c1ccc2c(c1)OCO2)N1CCCC1,,inactive: 1.76%
CCCCC1Cc2[nH]c(=S)[nH]c(=O)c2C(C(C)C)O1 (stereo not given),"inconclusive [inhibitor, single point]",
COc1cccc2sc3cc(C#CC4(O)CCCCC4)ccc3c(=O)c12,"inconclusive [inhibitor, single point]",
COc1ccc(C(=O)Nc2ccccc2-c2nnn(CC(=O)N3CCOCC3)n2)cc1,"inconclusive [inhibitor, partial curve]",
COC(=O)/C(C#N)=C/c1ccc(-c2ccc(S(N)(=O)=O)cc2)o1,,inactive: -25.9%
COc1ccccc1OCCOCCOc1ccc(C)cc1[N+](=O)[O-],"inconclusive [inhibitor, full curve, poor fit]",
O=C1c2ccccc2-c2nc3ccccc3cc21,"inconclusive [inhibitor, single point]",
Cc1cccc2nc(-c3cccc(NC(=O)c4ccc(Cl)cc4)c3)cn12,"inconclusive [inhibitor, single point]",
Cc1cccc(NC(=O)C2C3C=CC(C4CC34)C2C(=O)O)c1 (stereo not given),"inconclusive [inhibitor, partial curve]",
NS(=O)(=O)c1ccc(NC(=S)NCc2ccc(Cl)cc2)cc1,"inconclusive [inhibitor, partial curve, poor fit]",
CC1(C)CC(=O)C(Sc2ccc(Br)cc2)=C(O)C1,"inconclusive [inhibitor, single point]",
CC(O)(c1ccccc1)c1nc(-c2csc3ccccc23)cs1 (stereo not given),"inconclusive [inhibitor, single point]",
O=C(/C=C/c1cccs1)N1CCC2(CC1)Oc1ccc(Cl)cc1C(=O)C21CC(c2cccnc2)=NO1 (stereo not given),"inconclusive [inhibitor, single point]",
CCC1=NN(C(=O)c2ccc(Cl)cc2)C(O)(c2ccccc2)C1 (stereo not given),"inconclusive [inhibitor, single point]",

SMILES,Potency,"activity change, negative = growth inhibition"
O=c1c2ccccc2oc2nc(C3CCCCC3)n(Cc3ccco3)c(=O)c12,"inconclusive [inhibitor, partial curve]",
O=C(CSc1nc2nccnc2c(=O)n1Cc1cccs1)Nc1ccccc1,,inactive: 1.25%
COc1ccc(Nc2nc(N)c([N+](=O)[O-])c(NCc3ccccc3)n2)cc1,active: 16.4 µM,
Cc1ccc(S(=O)(=O)N(C)C[C@@H]2Oc3ccc(NC(=O)CCC(F)(F)F)cc3CC(=O)N([C@@H](C)CO)C[C@@H]2C)cc1,active: 5.8 µM,
CN(C)CCOC(=O)NCC12CC3CC(CC(C3)C1)C2,,inactive: -23%
COC(=O)[C@]1(Cc2ccccc2)N[C@H](CN(C)C(=O)Nc2ccc(F)cc2)[C@@H]2C(=O)N(Cc3ccccc3)C(=O)[C@@H]21,active: 14.6 µM,
Cc1cc(=O)n2[nH]c(-c3cccc(Cl)c3)cc2n1,"inconclusive [inhibitor, single point]",
O=C(/C=C/c1ccccc1)COC(=O)c1ccccc1,active: 9.2 µM,
O=C(CCNC(=O)c1ccco1)Nc1ccc(OC(F)F)cc1,,inactive: -0.459%
O=C(/C=C/c1cccc(Br)c1)NCC1CCCCC1,"inconclusive [inhibitor, single point]",
Cc1ccc(S(=O)(=O)N(CC2CO2)c2cccc([N+](=O)[O-])c2)cc1 (stereo not given),active: 23.1 µM,
COc1ccc(C(=O)NCCn2cc(SCC(=O)Nc3ccccc3)c3ccccc32)cc1OC,"inconclusive [inhibitor, single point]",
Cc1ccc(/C=N\NC(=O)C2CN(S(=O)(=O)c3ccccc3)CCN2S(=O)(=O)c2ccccc2)cc1 (stereo not given),active: 18.4 µM,
CCCN1C(=O)/C(=C/c2ccco2)SC1=Nc1ccc(OC)cc1,"inconclusive [inhibitor, single point]",
COc1ccc(N2CCN(C(c3cccs3)C(C)NS(C)(=O)=O)CC2)cc1 (stereo not given),,inactive: -4.06%
Fc1cccc(Nc2ncnc3[nH]ncc23)c1,,inactive: -15.5%
CC1CCN(C(=O)c2cc3nc(C4CC4)cc(C(F)(F)F)n3n2)CC1,"inconclusive [inhibitor, single point]",
O=C(Oc1ccc(-c2cnc3ccccc3n2)cc1)c1cc([N+](=O)[O-])ccc1Cl,,inconclusive: -30.3% [inhibitor]
C=CCn1c(SCC(=O)Nc2sc(C)c(C)c2C(=O)OCC)nnc1-c1sc(N)nc1C,"inconclusive [inhibitor, single point]",
CCOC(=O)C1=C(N)Oc2cc(O)ccc2C1c1cccnc1 (stereo not given),"inconclusive [inhibitor, single point]",
Cc1cccn2c(/C=N/OCc3cccc(F)c3)c(-c3ccc(Cl)cc3)nc12,"inconclusive [inhibitor, partial curve]",
CC(NC(=O)CN(c1cccc(C(F)(F)F)c1)S(=O)(=O)c1ccc(Cl)c([N+](=O)[O-])c1)c1ccccc1 (stereo not given),active: 9.2 µM,
CCCCCCCCCCOC(=O)C[N+](C)(C)C/C=C(/C)Cl,active: 3.66 µM,
CC1CN(Cc2cccn2-c2ncccn2)Cc2cc(Cl)ccc2O1 (stereo not given),"inconclusive [inhibitor, single point]",

SMILES,Potency,"activity change, negative = growth inhibition"
Cn1c(=O)n(CCc2ccccc2)c(=O)c2c1nc1n2CCCN1c1ccccc1,,inactive: -9.67%
Cc1ccc(C(=O)NNC(=O)c2nn(-c3ccc(F)cc3)ccc2=O)cc1,,inactive: -6.38%
CCCCNC(=O)C[C@@H]1C[C@@]2(C(=O)OC)CC(C)(C)CC=C2N(CCc2ccc(OC)c(OC)c2)C1=O,"inconclusive [inhibitor, single point]",
O=C(NCc1ccccc1)c1ccc2c(c1)C(=O)N(Cc1cccnc1)C2=O,,inactive: -1.38%
C[C@@H]1COc2cc(N(C)CCO)ccc2S(=O)(=O)N1,,inactive: -3.68%
CCCn1nc(C(=O)Nc2ccc(-n3cnnn3)cc2)c2ccccc2c1=O,active: 11.6 µM,
Cc1ccc2[nH]c(=O)c(C(c3nnnn3C3CCCC3)N(Cc3cccnc3)Cc3ccco3)cc2c1 (stereo not given),"inconclusive [inhibitor, single point]",
COc1ccc(-c2csc(N(CCCN(C)C)C(=O)c3ccccc3Cl)n2)cc1,"inconclusive [inhibitor, single point]",
CCOC(=O)N1CCN(C(=O)c2ccc3c(=O)n(Cc4ccccc4)c(=S)[nH]c3c2)CC1,,inactive: 0.0521%
O=C(N/N=C/c1cccc([N+](=O)[O-])c1)C1CC(=O)N(c2ccc(Br)cc2)C1 (stereo not given),"inconclusive [inhibitor, single point]",
O=C1NC(Cc2ccc(O)cc2)c2nc3cc(F)c(F)cc3c(=O)n2-c2cc3ccccc3cc21 (stereo not given),"inconclusive [inhibitor, single point]",
COc1ccc(C(CNC(=O)CCNC(=O)c2ccc(Br)cc2)N2CCOCC2)cc1 (stereo not given),,inconclusive: -32% [inhibitor]
Cc1sc2ncn(CC(=O)Nc3ccccc3F)c(=O)c2c1-c1ccccc1,,inconclusive: -30.7% [inhibitor]
CCN(CC)S(=O)(=O)c1ccc(/C=C/C(=O)Nc2ccccc2N2CCOCC2)cc1,"inconclusive [inhibitor, single point]",
O=C(CCCC(=O)NCCc1ccccc1)NCCc1ccccc1,,inactive: -7.76%
COc1ccc(CCn2c(N)cc(=O)[nH]c2=S)cc1OC,,inconclusive: -37.2% [inhibitor]
O=C(COC(=O)c1n[nH]c2ccccc12)NC(=O)NC12CC3CC(CC(C3)C1)C2,active: 9.2 µM,
CCCOc1ccc(C(=O)N2CCN(Cc3ccc4c(c3)OCO4)CC2)cc1,,inactive: -28.4%
CC(=O)C1=C(O)CC(c2ccccc2)CC1=NCCc1c(C)[nH]c2ccc(C)cc12 (stereo not given),,inconclusive: -30.6% [inhibitor]
Oc1ccc(Cl)c2cccnc12,active: 7.5 µM and active: 4.11 µM and active: 1.84 µM,
CCNc1ncnc2c1cnn2C1CCCCO1 (stereo not given),,inactive: -22.3%
CCOc1ccccc1CNC(=O)c1cc2c(=O)n(Cc3ccccc3)ccc2nc1C,active: 16.4 µM,

# Reference: PubChem BioAssay AID686978 (National Center for Advancing Translational Sciences (NCATS), 2013)
